# Several values for one entry are separate records, joined by “and”; a condition that tells them apart may be missing. Identical values can stand only once. Inconclusive means that the source gave no clear call. Such entries were picked first, then a sample of the others. Potencies beside an inconclusive call are fits to weak or partial responses and may not hold up. Activity calls are given as the source filed them. The call rests on the fitted dose curve; in most records, active means well fitted curve in the direction sought with a large enough effect in the repeat runs; inconclusive means weak or mixed curves; inactive means no such curve, though single readings can be large; an effect the other way counts as inactive or inconclusive.
# Assay: qHTS assay to identify small molecule agonists of the sonic hedgehog signaling (Shh) pathway - cell viability counter screen (AID 1259366); further: nearly all actives have a fitted effect of over 50% in size
# Conditions: NIH/3T3 Gli1-Luc viability, CellTiter-Fluor, 24 h; series mostly up to 92.4 µM
# Method in brief: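 After a 4hr attachment at 37C, NIH/3T3 cells bearing an integrated Gli1-driven luciferase reporter were dosed with compounds. Treatment lasted 24hr, with the final hour including CellTiter-Fluor for a fluorescence viability measurement.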
# Potency means the concentration at half of the fitted maximal effect; tags describe the fitted curve by direction and shape.
row,SMILES,Potency
1,Nc1ccccc1O,active: 24 µM
2,Cc1ccc(Nc2c(F)cccc2Cl)c(CC(=O)O)c1,inactive
3,N#[N+]c1ccc2c(S(=O)(=O)[O-])cccc2c1O,"inconclusive: 68.6 µM [cytotoxic, single point]"
4,S=c1[nH]c2ccccc2s1,"inconclusive: 27.3 µM [rising, partial curve]"
5,C=CC(=C)CCCC(C)(C)OC(C)=O,inactive
6,CCCCC1C(=O)N(c2ccccc2)N(c2ccc(O)cc2)C1=O (centres undefined),active: 13.3 µM
7,Oc1ccc(-c2ccc(O)cc2)cc1,inconclusive: 27.5 µM [cytotoxic]
8,CN1CCN(C2=Nc3cc(Cl)ccc3Nc3ccccc32)CC1,active: 13.3 µM
9,CC(C)OC(=O)c1cc(C(=O)OC(C)C)cc([N+](=O)[O-])c1,"inconclusive: 24.9 µM [rising, partial curve, poor fit]"
10,NC(N)=Nc1nc(CSCC/C(N)=N/S(N)(=O)=O)cs1,"inconclusive: 30.6 µM [cytotoxic, partial curve]"
11,CC(C)c1nc(CN(C)C(=O)N[C@H](C(=O)N[C@@H](Cc2ccccc2)C[C@H](O)[C@H](Cc2ccccc2)NC(=O)OCc2cncs2)C(C)C)cs1,active: 6.68 µM
12,O=C(O)c1cc(O)c2ccccc2c1O,active: 9.69 µM

# Assay: qHTS assay to identify small molecule antagonists of the sonic hedgehog signaling (Shh) pathway - cell viability counter screen (AID 1259367); further: nearly all actives have a fitted effect of over 55% in size
# Conditions: NIH/3T3 Gli1-Luc viability, CellTiter-Fluor, 24 h; series mostly up to 92.4 µM
# Method in brief: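 NIH/3T3-derived Gli1-Luc reporter cells (2,000 per well) rested 4 hr at 37 C, then received DMSO compounds plus conditioned medium. After 23 hr of treatment, CellTiter-Fluor was added for 1 hr at 37C and fluorescence read.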
row,SMILES,Potency
1,Oc1ccc(C(c2ccc(O)cc2)C(Cl)(Cl)Cl)cc1,"inconclusive: 68.3 µM [cytotoxic, single point] and inconclusive: 17.2 µM [cytotoxic, single point]"
2,Nc1ccccc1N,"inconclusive: 30.6 µM [cytotoxic, full curve, poor fit]"
3,Oc1ccc(-c2ccc(O)cc2)cc1,"inconclusive: 21.8 µM [cytotoxic, partial curve]"
4,CN1CCN(C2=Nc3cc(Cl)ccc3Nc3ccccc32)CC1,"inconclusive: 11.9 µM [cytotoxic, partial curve]"
5,NC(N)=Nc1nc(CSCC/C(N)=N/S(N)(=O)=O)cs1,"inconclusive: 43.3 µM [cytotoxic, partial curve]"
6,NNCCc1ccccc1,"inconclusive: 0.173 µM [cytotoxic, single point]"
7,O=C(O)c1cc(O)c2ccccc2c1O,active: 13.7 µM

# Source: PubChem BioAssay (Tox21)
